Measurements: PubChem BioAssay AID1508624 (National Center for Advancing Translational Sciences (NCATS), 2021)
About 120 (0.25%) of roughly 48,000 compounds were called active. Roughly 4% stayed inconclusive and do not appear here. The call rests on the fitted dose curve; in most records, active means well fitted activation curve with a large enough effect; inconclusive means small, poorly fitted or top-dose-only effect, or another doubt; inactive means no such curve, though single readings can be large or run the other way. The list shows a part of the results.

assay: Primary qHTS for Identification of Small Molecule Activators of Huntingtin-Antisense Promoter Activity; details: HEK293 HTT-AS promoter firefly luciferase reporter, 24 h; series mostly up to 57.5 µM; activity change, positive = activation: at the top concentration; further: nearly all actives have a fitted effect of over 55% in size
From the text: Assay Provider: Russell L. Margolis M.D.
Department Neurology, Johns Hopkins University School of Medicine, Baltimore, MD
Huntington's Disease (HD) is a neurodegenerative disorder caused by a CAG repeat expansion in exon 1 of huntingtin (HTT). While there are currently no disease-modifying treatments for HD, recent efforts have focused on development of nucleotide-based therapeutics to lower HTT expression. As an alternative to siRNA or oligonucleotide methods, we hypothesized that suppression of HTT expression might be accomplished by small molecules that either (1) directly decrease HTT expression by suppressing HTT promoter activity or (2) indirectly decrease HTT expression by increasing the promoter activity of HTT-AS, the gene antisense to HTT that appears to inhibit expression of HTT.
We developed and employed a high throughput screen for modifiers of HTT and HTT-AS promoter activity using luminescent reporter HEK293 cells; of the 52,041 compounds tested, we identified 898 replicable hits. We used a rigorous stepwise approach to assess compound toxicity and the capacity of the compounds to specifically lower huntingtin protein in 5 different cell lines, including HEK293 cells, HD lymphoblastoid cells, mouse primary neurons, HD iPSCs differentiated into cortical-like neurons, and HD hESCs. We found no compounds which were able to lower huntingtin without lowering cell viability in all assays, though the potential efficacy of a few compounds at non-toxic doses could not be excluded.
SEQUENCE No. (1, 2, 3, etc.); […] (e.g., Cells, Incubation, Reagent, etc.); VALUE and DESCRIPTION.
1; Reagent; 4 uL; 2,500 Hek293 luciferase reporter cells per wells
3; Compound; 23 nL; Control inhibitor / compound library
5; Reagent; 2.5 uL; Firefly Luc reagent; Dual-Glo Luciferase Reporter Assay System (Promega)
6; Time; 10 min; room temperature incubation
7; Detection; Luminescence; FLuc
NOTES (numbers refer to sequence above)
1; High-throughput screening, measuring luminescence from a Hek293 luciferase reporter, was performed in 1,536 well white-walled tissue-culture treated plates. 2,500 cells were plated in 4 µL of Opti-MEM per well using a Multidrop Combi Reagent Dispenser (ThermoFisher).
2; Assay plates were cultured for 24 hours.
3; Control inhibitor (PTC124; final concentration of 50 uM) and compound library (at final concentrations of 460 nM - 57.5 uM) were added to the assay plate using the Kalypsis Pintool Robotic System equipped with 1536 pinheads.
4; Cells were then incubated for 24 hours at 37 degrees C prior to luminescence measurements.
5; In all cases, luminescence was measured using the Dual-Glo Luciferase Reporter Assay System (Promega) following the manufacturer's instructions.
6; Room temperature incubation.
7; Luminescence signal was obtained using the PerkinElmer ViewLux plate reader. Results were normalized to vehicle control (0% activity) and zero RLU (-100% activity).
Potency means the concentration at half of the fitted maximal effect.

Structure (SMILES)	activity change, positive = activation	Potency
CCN(CC)CCNC(=O)c1ccc2c(=O)n3nc(Nc4cccc(Cl)c4C)sc3nc2c1	inactive: -24.5%	
CCc1ccc(-c2cn3c(n2)sc2cc(C(=O)NCCCc4ccccc4)ccc23)cc1	inactive: 13.8%	
O=C(Nc1cccc(-c2nc3cc(Cl)ccc3o2)c1)c1ccc(F)cc1	inactive: -3.82%	
O=C(Cn1c(=O)n(Cc2ccc(F)cc2)c(=O)c2sc3ccccc3c21)NCc1ccccc1	inactive: -9.11%	
Cc1ccc(OCCSc2nc3ccccc3n2CC(=O)N2CCCCC2)c(C)c1	inactive: -40.6%	
NC(=O)N[C@@H](CCC(=O)O)C(=O)O	inactive: -5.39%	
O=C(Cn1c(=O)oc2cc(S(=O)(=O)N3CCCC3)ccc21)Nc1ccc(OC(F)(F)F)cc1	inactive: -23.5%	
COc1ccc(-c2nc3sc(CCNC(=O)C(=O)Nc4ccc(C)cc4C)c(C)n3n2)cc1	inactive: 2.28%	
Cc1ccc(NC(=O)C2CCC(CNS(=O)(=O)c3cccc4nsnc34)CC2)c(C)c1 (stereo not drawn)	inactive: 2.29% [at 11.5 µM, percent change from vehicle, -100% = no light]	
Cc1ccc(C)c(Cn2c(C(C)NC(=O)c3ccccc3)nc3ccccc32)c1 (stereo not drawn)	inactive: -28.6%	
Cc1nc2ccc(S(=O)(=O)N(CC(=O)Nc3cccc(C)c3C)Cc3ccccc3)cc2s1	inactive: -14.2%	
O=C(CCn1cnc2onc(-c3ccc(F)cc3)c2c1=O)N1CCN(c2ccccc2)CC1	inactive: -19.9%	
O=C(CSC1=Nc2ccccc2C2=NC(Cc3ccccc3)C(=O)N12)Nc1ccccc1 (stereo not drawn)	inactive: 1.62%	
O=C(NCc1noc2ccccc12)N1CCN(c2ccccc2F)CC1	inactive: 5.43%	
CCN(Cc1ccccc1)Cc1c(O)ccc2c(=O)c(-c3ccccc3Cl)coc12	inactive: -12.6%	
CCn1cc(C(=O)NCCCOC(C)C)c(=O)c2cc(S(=O)(=O)N(C)C3CCCCC3)ccc21	inactive: -25.2%	
CCOC(=O)c1c(-c2ccccc2)csc1NC(=O)c1cc(-c2cccc(Cl)c2)on1	inactive: -1.99%	
Cc1ccc(C)c(N2CCN(S(=O)(=O)c3ccc4c(c3)n(C)c(=O)c(=O)n4C)CC2)c1	inactive: 0.615%	
O=C(NCc1ccccc1)c1ccc(Cn2c(=O)c3cccn3c3cccnc32)cc1	inactive: -6.97%	
CC(=O)c1cccc(NC(=O)c2ccc3c(c2)c(C)c(C)n3Cc2ccc(Cl)cc2)c1	inactive: -14.6%	
COc1cc(OC)c(NC(=O)CSCc2nc(-c3ccc(OC)c(OC)c3)no2)cc1Cl	inactive: -2.71%	
COCCCC/C(=N\OCCN)c1ccc(C(F)(F)F)cc1	inactive: -14.2%	
O=C(Nc1cc(-c2nc3cc(Cl)ccc3o2)ccc1Cl)c1cc2ccccc2o1	inactive: 7.57%	
CCOc1ccccc1CNC(=O)c1ccc2nc(CCc3ccccc3)oc2c1	inactive: -13.4%	

Structure (SMILES)	activity change, positive = activation	Potency
CC(C)(C)COc1ccc(-n2cc(C(=O)O)cn2)cc1C#N	inactive: -77.9%	
COC(=O)[C@H](c1ccccc1Cl)N1CCc2sccc2C1	inactive: -45.4%	
CCOc1ccccc1NC(=O)CN1Cc2ccccc2C1=O	inactive: 0.373%	
C[C@]12CCC(=O)C=C1CC[C@@H]1[C@@H]2C(=O)C[C@@]2(C)[C@H]1CC[C@]2(O)C(=O)CO	inactive: -7.2%	
COC(=O)c1ccc(CN(Cc2ccc(OC)c(OC)c2)S(=O)(=O)c2ccc(F)c(C(=O)Nc3cc(C)ccc3C)c2)cc1	inactive: -15%	
CC(Oc1ccccc1)C(=O)Nc1ccc(C(=O)OCc2cc(=O)n3ccsc3n2)cc1 (stereo not drawn)	inactive: -15.1%	
Cc1cccc(C(=O)NCC(=O)OCc2cc(=O)n3nc(C)sc3n2)c1	inactive: -4.92%	
N#Cc1nc(/C=C/c2ccc(F)cc2)oc1N1CCCCC1	inactive: 11.2%	
Cc1cccc(Nc2cc(C)nc3nc(Cc4ccc(Cl)cc4)nn23)c1	inactive: -27.7%	
CCCOc1ccccc1C(=O)Nc1ccc(-c2nc3ccc(C)cc3s2)cc1		active: 2.24 µM
CCOC(=O)c1ccc(NC(=O)Cn2cc(S(=O)(=O)Cc3ccccc3F)c3ccccc32)cc1	inactive: -31.3%	
Cc1cc(-c2ccccc2)nc2cc(C(=O)Nc3cc(C(F)(F)F)ccc3Cl)nn12	inactive: -1.03%	
COc1ccc(CNC(=O)c2ccc3c(Cl)c4c(nc3c2)CCCC4)c(OC)c1	inactive: -19%	
Cc1nc(SCC(=O)Nc2ccc(Cl)cc2C(F)(F)F)[nH]c(=O)c1Cc1ccccc1	inactive: -9.47%	
Cc1ccc(Cn2cc3c(n2)-c2c(oc(C(=O)Nc4ccc(F)cc4F)c2C)CC3)cc1	inactive: -2.56%	
O=C(CSc1nc2c([nH]c3ccccc32)c(=O)n1-c1ccc(F)cc1)NCc1ccco1	inactive: -32.7%	
CC1=C(C(=O)Nc2cc(Cl)ccc2C)C(c2ccco2)n2ncnc2N1 (stereo not drawn)	inactive: -14.4%	
CCSc1nnc2c(n1)OC(c1sccc1C)N(C(C)=O)c1ccccc1-2 (stereo not drawn)	inactive: -31.1%	
O=C(NCc1cccc(F)c1)c1ccc2nc(N3CCCCC3)sc2c1	inactive: -19.7%	
CCOC(=O)C1CCCN(S(=O)(=O)c2cc3c(cc2C)NC(=O)CO3)C1 (stereo not drawn)	inactive: -16.4%	
Cc1ccc(OCC(=O)Nc2ccc3nc(SCC(N)=O)sc3c2)cc1	inactive: -9.51%	
COc1ccc(Cn2c(=O)c3oc4ccccc4c3n(Cc3cccc(F)c3)c2=O)cc1	inactive: -37.6%	
COC(=O)c1c(C)oc2ccc(N(C(=O)Oc3ccccc3)S(=O)(=O)c3ccc(C(C)(C)C)cc3)cc12	inactive: -26.9%	
O=C(NCCc1ccc(Cl)cc1)c1ccc2c(c1)N(Cc1c(F)cccc1Cl)C(=O)CS2	inactive: -32.3%	
